Data published in paper PMC6264145.
These are yes or no findings as the source states them, for the method shown. In cells and extracts the contact can be indirect. Some entries that bind do so weakly or less than the wild type. Tags and fused reporters may be left off the sequences shown.

Protein sequences, listed by entry. Tags and fused reporters are not part of them. Residues count along the entry.
UniProt Q92973: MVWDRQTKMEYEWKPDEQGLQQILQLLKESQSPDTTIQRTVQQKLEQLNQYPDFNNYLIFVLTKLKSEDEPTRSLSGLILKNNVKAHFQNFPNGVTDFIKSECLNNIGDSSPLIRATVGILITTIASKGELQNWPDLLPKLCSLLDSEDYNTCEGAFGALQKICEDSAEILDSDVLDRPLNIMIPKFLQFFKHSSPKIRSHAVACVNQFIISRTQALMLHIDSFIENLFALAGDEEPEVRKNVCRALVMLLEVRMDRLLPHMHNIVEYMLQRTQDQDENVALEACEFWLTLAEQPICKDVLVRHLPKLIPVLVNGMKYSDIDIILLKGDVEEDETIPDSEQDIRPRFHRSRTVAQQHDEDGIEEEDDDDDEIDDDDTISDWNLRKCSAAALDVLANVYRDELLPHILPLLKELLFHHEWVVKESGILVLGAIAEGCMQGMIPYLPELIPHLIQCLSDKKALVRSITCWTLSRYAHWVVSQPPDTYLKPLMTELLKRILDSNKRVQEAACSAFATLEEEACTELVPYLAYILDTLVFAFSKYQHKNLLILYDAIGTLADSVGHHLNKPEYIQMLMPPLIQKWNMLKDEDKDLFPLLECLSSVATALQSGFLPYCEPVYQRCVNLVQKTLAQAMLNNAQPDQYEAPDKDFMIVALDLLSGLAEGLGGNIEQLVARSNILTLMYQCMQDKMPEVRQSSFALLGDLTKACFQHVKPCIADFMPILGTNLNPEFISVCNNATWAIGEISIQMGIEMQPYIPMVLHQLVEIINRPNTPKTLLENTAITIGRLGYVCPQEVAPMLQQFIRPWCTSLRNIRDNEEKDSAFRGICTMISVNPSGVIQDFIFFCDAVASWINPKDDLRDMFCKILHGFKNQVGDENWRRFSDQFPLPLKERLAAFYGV
UniProt P52948, residues 1-880: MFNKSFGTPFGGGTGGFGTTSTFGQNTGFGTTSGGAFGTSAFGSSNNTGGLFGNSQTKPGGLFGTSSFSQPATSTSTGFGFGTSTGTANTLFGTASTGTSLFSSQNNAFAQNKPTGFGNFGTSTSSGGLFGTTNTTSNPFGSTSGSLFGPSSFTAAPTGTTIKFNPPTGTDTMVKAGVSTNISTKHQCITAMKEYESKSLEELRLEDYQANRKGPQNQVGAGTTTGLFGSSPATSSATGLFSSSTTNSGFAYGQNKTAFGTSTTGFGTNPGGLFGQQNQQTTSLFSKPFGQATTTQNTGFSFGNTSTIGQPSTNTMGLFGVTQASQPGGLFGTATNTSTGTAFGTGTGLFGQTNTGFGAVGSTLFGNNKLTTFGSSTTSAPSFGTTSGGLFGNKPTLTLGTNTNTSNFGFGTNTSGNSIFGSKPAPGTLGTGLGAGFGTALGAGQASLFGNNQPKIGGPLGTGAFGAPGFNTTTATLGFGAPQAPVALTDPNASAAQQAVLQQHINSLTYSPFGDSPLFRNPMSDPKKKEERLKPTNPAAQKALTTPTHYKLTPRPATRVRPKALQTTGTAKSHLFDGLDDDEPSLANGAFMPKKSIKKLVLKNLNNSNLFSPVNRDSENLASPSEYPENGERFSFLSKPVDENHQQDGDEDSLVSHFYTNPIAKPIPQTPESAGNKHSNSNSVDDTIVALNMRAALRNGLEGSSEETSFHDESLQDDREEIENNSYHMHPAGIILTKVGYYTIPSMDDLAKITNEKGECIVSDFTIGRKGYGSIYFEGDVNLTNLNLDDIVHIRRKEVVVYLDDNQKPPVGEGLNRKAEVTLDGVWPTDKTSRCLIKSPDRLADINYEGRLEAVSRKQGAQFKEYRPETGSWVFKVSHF
UniProt Q12796: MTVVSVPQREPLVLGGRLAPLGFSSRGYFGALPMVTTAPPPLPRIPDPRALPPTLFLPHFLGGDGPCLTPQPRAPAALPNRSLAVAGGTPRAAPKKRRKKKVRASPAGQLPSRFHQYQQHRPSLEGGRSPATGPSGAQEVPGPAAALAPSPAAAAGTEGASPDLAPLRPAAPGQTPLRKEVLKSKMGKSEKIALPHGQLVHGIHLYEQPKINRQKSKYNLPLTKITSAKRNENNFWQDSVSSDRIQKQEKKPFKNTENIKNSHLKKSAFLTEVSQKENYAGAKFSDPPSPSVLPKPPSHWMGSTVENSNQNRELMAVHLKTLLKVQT
UniProt Q13761: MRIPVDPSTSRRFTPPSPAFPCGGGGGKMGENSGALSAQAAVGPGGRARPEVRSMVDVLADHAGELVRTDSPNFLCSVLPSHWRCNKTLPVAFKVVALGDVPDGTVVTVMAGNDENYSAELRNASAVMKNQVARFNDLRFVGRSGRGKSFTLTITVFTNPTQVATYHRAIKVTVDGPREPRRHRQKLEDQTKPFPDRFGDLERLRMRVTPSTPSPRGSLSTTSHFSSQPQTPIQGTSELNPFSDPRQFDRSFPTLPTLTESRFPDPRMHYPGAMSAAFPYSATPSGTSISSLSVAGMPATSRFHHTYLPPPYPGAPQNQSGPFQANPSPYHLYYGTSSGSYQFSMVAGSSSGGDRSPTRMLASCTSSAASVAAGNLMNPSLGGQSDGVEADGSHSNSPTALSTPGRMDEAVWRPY

T1: HA-tagged mutant RRR11-13A MX2 (human) (UniProt P20592)
T1 sequence: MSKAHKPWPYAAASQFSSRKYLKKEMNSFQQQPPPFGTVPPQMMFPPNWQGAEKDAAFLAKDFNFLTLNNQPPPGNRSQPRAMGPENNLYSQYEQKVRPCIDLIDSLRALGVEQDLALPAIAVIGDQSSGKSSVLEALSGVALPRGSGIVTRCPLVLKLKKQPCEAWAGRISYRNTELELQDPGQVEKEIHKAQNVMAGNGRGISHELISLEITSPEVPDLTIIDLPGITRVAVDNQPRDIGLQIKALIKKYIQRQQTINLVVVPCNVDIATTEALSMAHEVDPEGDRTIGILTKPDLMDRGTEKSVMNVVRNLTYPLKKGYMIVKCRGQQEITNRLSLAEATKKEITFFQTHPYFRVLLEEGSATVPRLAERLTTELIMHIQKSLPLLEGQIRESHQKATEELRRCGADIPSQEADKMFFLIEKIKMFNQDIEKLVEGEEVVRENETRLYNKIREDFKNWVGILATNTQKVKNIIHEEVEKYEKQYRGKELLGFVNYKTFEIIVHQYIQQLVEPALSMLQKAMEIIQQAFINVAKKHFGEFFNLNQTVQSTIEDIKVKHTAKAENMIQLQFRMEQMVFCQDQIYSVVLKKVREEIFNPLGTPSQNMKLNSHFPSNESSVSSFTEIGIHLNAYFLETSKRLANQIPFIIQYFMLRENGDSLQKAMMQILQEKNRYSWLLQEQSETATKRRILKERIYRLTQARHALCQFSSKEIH

T2: HA-tagged wild-type MX2 (human) (UniProt P20592)
T2 sequence: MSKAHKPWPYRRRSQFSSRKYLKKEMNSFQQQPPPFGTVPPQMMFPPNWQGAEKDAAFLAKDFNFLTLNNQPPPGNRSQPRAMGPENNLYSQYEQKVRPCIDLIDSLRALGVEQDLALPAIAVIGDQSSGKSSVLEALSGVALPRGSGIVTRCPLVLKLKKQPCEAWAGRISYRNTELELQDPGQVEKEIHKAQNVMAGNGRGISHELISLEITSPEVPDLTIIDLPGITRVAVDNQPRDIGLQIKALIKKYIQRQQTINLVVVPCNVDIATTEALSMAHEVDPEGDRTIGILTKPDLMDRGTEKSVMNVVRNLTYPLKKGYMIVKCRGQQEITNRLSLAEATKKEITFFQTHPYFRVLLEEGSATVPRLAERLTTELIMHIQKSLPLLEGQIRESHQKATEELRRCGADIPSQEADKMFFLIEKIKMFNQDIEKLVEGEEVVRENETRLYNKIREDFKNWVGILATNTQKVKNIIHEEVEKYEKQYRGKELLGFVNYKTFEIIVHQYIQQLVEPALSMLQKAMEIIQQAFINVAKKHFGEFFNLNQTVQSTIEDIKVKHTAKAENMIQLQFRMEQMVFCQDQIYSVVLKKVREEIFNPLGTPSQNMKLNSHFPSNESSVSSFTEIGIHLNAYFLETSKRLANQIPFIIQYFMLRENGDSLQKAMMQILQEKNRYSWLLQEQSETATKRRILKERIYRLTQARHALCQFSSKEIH

T3: HA-tagged MX1 (human) (UniProt P20591)
T3 sequence: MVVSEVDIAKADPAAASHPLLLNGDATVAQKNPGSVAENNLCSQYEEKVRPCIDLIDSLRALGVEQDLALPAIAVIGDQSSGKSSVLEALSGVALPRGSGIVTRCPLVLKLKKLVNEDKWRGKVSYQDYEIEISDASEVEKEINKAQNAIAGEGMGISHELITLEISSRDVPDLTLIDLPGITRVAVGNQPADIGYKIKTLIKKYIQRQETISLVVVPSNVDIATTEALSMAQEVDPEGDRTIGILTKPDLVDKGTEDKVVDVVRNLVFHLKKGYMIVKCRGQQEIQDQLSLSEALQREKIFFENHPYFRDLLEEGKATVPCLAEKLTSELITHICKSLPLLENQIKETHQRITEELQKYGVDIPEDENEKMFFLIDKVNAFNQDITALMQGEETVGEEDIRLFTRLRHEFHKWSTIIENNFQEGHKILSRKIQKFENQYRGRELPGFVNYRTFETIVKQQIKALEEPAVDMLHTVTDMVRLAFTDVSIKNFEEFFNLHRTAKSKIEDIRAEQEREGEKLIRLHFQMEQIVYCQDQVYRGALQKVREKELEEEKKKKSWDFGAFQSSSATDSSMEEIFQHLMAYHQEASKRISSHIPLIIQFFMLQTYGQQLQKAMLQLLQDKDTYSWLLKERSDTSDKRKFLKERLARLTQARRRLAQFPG


Assays:
[1] = target: T1, HA-tagged mutant RRR11-13A MX2 (human); assay: co-IP; 293T co-transfected with triple-HA and FLAG-tagged constructs; isotonic lysis buffer (PBS, 0.5% Triton-X100), sonication; anti-HA magnetic beads 2 h at 4°C; immunoblot with anti-FLAG
[2] = target: T2, HA-tagged wild-type MX2 (human); assay: as above
[3] = target: T3, HA-tagged MX1 (human); assay: as above
[4] = target: T1, HA-tagged mutant RRR11-13A MX2 (human); assay: co-IP; 293T co-transfected with triple-HA and FLAG- or T7-tagged constructs; hypotonic lysis buffer (10 mM Tris-HCl pH 8.0, 10 mM KCl), Dounce homogenization, then 100 mM KCl and 0.3% Triton X-100; anti-HA magnetic beads 2 h at 4°C; wash with 200 mM KCl, 0.3% Triton X-100; used for PNRC1, KLHL6 and hRIP
[5] = target: T2, HA-tagged wild-type MX2 (human); assay: as above
[6] = target: T1, HA-tagged mutant RRR11-13A MX2 (human); assay: co-IP; 293T co-transfected with triple-HA and FLAG-tagged constructs; isotonic lysis buffer (PBS, 0.5% Triton-X100), sonication; anti-HA magnetic beads 2 h at 4°C; immunoblot with anti-FLAG; remark: listed apart in the source
[7] = target: T2, HA-tagged wild-type MX2 (human); assay: as above; remark: listed apart in the source
[8] = target: T3, HA-tagged MX1 (human); assay: co-IP; 293T co-transfected with triple-HA and FLAG- or T7-tagged constructs; hypotonic lysis buffer (10 mM Tris-HCl pH 8.0, 10 mM KCl), Dounce homogenization, then 100 mM KCl and 0.3% Triton X-100; anti-HA magnetic beads 2 h at 4°C; wash with 200 mM KCl, 0.3% Triton X-100; used for PNRC1, KLHL6 and hRIP
[9] = target: FLAG-TNPO1 (UniProt Q92973); assay: co-IP; 293T co-transfected with HA-tagged MX2 and FLAG-tagged constructs; isotonic lysis buffer; anti-FLAG (M2) magnetic beads 2 h at 4°C; immunoblot with anti-HA

Row | Molecule | binding [1] | binding [4] | binding [5] | also measured
1 | FLAG-NUP98 (from UniProt P52948 1-880) | binds weakly |  |  | binding [2]: binds
2 | PNRC1-FLAG (from UniProt Q12796 1-327) |  | binds weakly | binds | 
3 | RUNX3-FLAG (from UniProt Q13761 1-415) | binds |  |  | 
4 | FLAG-NUPL2 (protein, UniProt O15504 1-423) MAICQFFLQGRCRFGDRCWNEHPGARGAGGGRQQPQQQPSGNNRRGWNTTSQRYSNVIQPSSFSKSTPWGGSRDQEKPYFSSFDSGASTNRKEGFGLSENPFASLSPDEQKDEKKLLEGIVKDMEVWESSGQWMFSVYSPVKKKPNISGFTDISPEELRLEYHNFLTSNNLQSYLNSVQRLINQWRNRVNELKSLNISTKVALLSDVKDGVNQAAPAFGFGSSQAATFMSPGFPVNNSSSDNAQNFSFKTNSGFAAASSGSPAGFGSSPAFGAAASTSSGISTSAPAFGFGKPEVTSAASFSFKSPAASSFGSPGFSGLPASLATGPVRAPVAPAFGGGSSVAGFGSPGSHSHTAFSKPSSDTFGNSSISTSLSASSSIIATDNVLFTPRDKLTVEELEQFQSKKFTLGKIPLKPPPLELLNV |  |  |  | binding [6]: binds; binding [7]: binds
5 | T7-hRIP (protein, UniProt P52594 1-562) MAASAKRKQEEKHLKMLRDMTGLPHNRKCFDCDQRGPTYVNMTVGSFVCTSCSGSLRGLNPPHRVKSISMTTFTQQEIEFLQKHGNEVCKQIWLGLFDDRSSAIPDFRDPQKVKEFLQEKYEKKRWYVPPEQAKVVASVHASISGSSASSTSSTPEVKPLKSLLGDSAPTLHLNKGTPSQSPVVGRSQGQQQEKKQFDLLSDLGSDIFAAPAPQSTATANFANFAHFNSHAAQNSANADFANFDAFGQSSGSSNFGGFPTASHSPFQPQTTGGSAASVNANFAHFDNFPKSSSADFGTFNTSQSHQTASAVSKVSTNKAGLQTADKYAALANLDNIFSAGQGGDQGSGFGTTGKAPVGSVVSVPSQSSASSDKYAALAELDSVFSSAATSSNAYTSTSNASSNVFGTVPVVASAQTQPASSSVPAPFGATPSTNPFVAAAGPSVASSTNPFQTNARGATAATFGTASMSMPTGFGTPAPYSLPTSFSGSFQQPAFPAQAAFPQQTAFSQQPNGAGFAAFGQTKPVVTPFGQVAAAGVSSNPFMTGAPTGQFPTGSSSTNPFL |  | binds | binds | binding [8]: no binding
6 | HA-tagged wild-type MX2 (protein, UniProt P20592 1-715) MSKAHKPWPYRRRSQFSSRKYLKKEMNSFQQQPPPFGTVPPQMMFPPNWQGAEKDAAFLAKDFNFLTLNNQPPPGNRSQPRAMGPENNLYSQYEQKVRPCIDLIDSLRALGVEQDLALPAIAVIGDQSSGKSSVLEALSGVALPRGSGIVTRCPLVLKLKKQPCEAWAGRISYRNTELELQDPGQVEKEIHKAQNVMAGNGRGISHELISLEITSPEVPDLTIIDLPGITRVAVDNQPRDIGLQIKALIKKYIQRQQTINLVVVPCNVDIATTEALSMAHEVDPEGDRTIGILTKPDLMDRGTEKSVMNVVRNLTYPLKKGYMIVKCRGQQEITNRLSLAEATKKEITFFQTHPYFRVLLEEGSATVPRLAERLTTELIMHIQKSLPLLEGQIRESHQKATEELRRCGADIPSQEADKMFFLIEKIKMFNQDIEKLVEGEEVVRENETRLYNKIREDFKNWVGILATNTQKVKNIIHEEVEKYEKQYRGKELLGFVNYKTFEIIVHQYIQQLVEPALSMLQKAMEIIQQAFINVAKKHFGEFFNLNQTVQSTIEDIKVKHTAKAENMIQLQFRMEQMVFCQDQIYSVVLKKVREEIFNPLGTPSQNMKLNSHFPSNESSVSSFTEIGIHLNAYFLETSKRLANQIPFIIQYFMLRENGDSLQKAMMQILQEKNRYSWLLQEQSETATKRRILKERIYRLTQARHALCQFSSKEIH |  |  |  | binding [9]: binds

More lines, main results first:

Row | binding [1] | binding [4] | binding [5] | Molecule | also measured
7 | binds |  |  | FLAG-TNPO1 (from UniProt Q92973 1-898) | binding [3]: no binding; binding [2]: binds
8 |  | binds | binds | FLAG-KLHL6 (protein, UniProt Q8WZ60 1-621) MLMAGQRGAWTMGDVVEKSLEGPLAPSTDEPSQKTGDLVEILNGEKVKFDDAGLSLILQNGLETLRMENALTDVILCVDIQEFSCHRVVLAAASNYFRAMFCNDLKEKYEKRIIIKGVDAETMHTLLDYTYTSKALITKQNVQRVLEAANLFQFLRMVDACASFLTEALNPENCVGILRLADTHSLDSLKKQVQSYIIQNFVQILNSEEFLDLPVDTLHHILKSDDLYVTEEAQVFETVMSWVRHKPSERLCLLPYVLENVRLPLLDPWYFVETVEADPLIRQCPEVFPLLQEARMYHLSGNEIISERTKPRMHEFQSEVFMIIGGCTKDERFVAEVTCLDPLRRSRLEVAKLPLTEHELESENKKWVEFACVTLKNEVYISGGKETQHDVWKYNSSINKWIQIEYLNIGRWRHKMVVLGGKVYVIGGFDGLQRINNVETYDPFHNCWSEAAPLLVHVSSFAATSHKKKLYVIGGGPNGKLATDKTQCYDPSTNKWSLKAAMPVEAKCINAVSFRDRIYVVGGAMRALYAYSPLEDSWCLVTQLSHERASCGIAPCNNRLYITGGRDEKNEVIATVLCWDPEAQKLTEECVLPRGVSHHGSVTIRKSYTHIRRIVPGAVSV | 
